From US20160152725A1 (Memorial Sloan Kettering, published 2016)

Target: T1, biotinylated HLA-A2/WT1126 (…) monomer (human, biotin at a specific biotinylation site at the C-terminus)
T1 construct: also called HLA-A2-WT1 monomer; WT1126/HLA-A2
Assay: SPR Biacore T100; biotinylated pMHC captured, antibody injected; 1:1 fit; bivalent, apparent affinity

- Kd: 2 pM
B1: Q2L scFv-Fc fusion protein (Fc fusion)
chain: EVQLLESGGGLVQPGGSLRLSCAASGFTFSSYAMSWVRQAPGKGLEWVSLIDPWGQETLYADSVKGRFTISRDNSKNTLYLQMNSLRAEDTAVYYCAKLTGRFDYWGQGTLVTVSSGGGGSGGGGSGGGGSTDIQMTQSPSSLSASVGDRVTITCRASQSISSYLNWYQQKPGKAPKLLIYSASLLQSGVPSRFSGSGSGTDFTLTISSLQPEDFATYYCQQGPGTPNTFGQGTKVEIKRKGP[human IgG1 Fc not given here]
notes: also called Q21
